# Measurements from PubChem BioAssay AID488969 (Vanderbilt High Throughput Screening Facility, 2010).
# In all, about 110,000 compounds were measured (“z-score”: median about -0.1, highest 2% from about 2 on). This is one part of the list. Calls of active or inactive are those of the source.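 How the source made its calls: active means z-score in the third read window above 3 or below -3; inactive means the rest.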
# Target: Metabotropic glutamate receptor 8 (Rattus norvegicus) (UniProt P70579)
# Assay: rat mGluR8 modulators via GIRK flux, primary screen, cell-based, thallium flux, HTS (AID 488969)
# Conditions: HEK293 rat mGluR8, GIRK (G protein-gated inwardly rectifying potassium channel) thallium flux, FluoZin2; at 10 µM; stronger effect = higher value; submaximal glutamate (EC20) added with thallium
# Chain of UniProt P70579 (P70579 whole entry, looked up): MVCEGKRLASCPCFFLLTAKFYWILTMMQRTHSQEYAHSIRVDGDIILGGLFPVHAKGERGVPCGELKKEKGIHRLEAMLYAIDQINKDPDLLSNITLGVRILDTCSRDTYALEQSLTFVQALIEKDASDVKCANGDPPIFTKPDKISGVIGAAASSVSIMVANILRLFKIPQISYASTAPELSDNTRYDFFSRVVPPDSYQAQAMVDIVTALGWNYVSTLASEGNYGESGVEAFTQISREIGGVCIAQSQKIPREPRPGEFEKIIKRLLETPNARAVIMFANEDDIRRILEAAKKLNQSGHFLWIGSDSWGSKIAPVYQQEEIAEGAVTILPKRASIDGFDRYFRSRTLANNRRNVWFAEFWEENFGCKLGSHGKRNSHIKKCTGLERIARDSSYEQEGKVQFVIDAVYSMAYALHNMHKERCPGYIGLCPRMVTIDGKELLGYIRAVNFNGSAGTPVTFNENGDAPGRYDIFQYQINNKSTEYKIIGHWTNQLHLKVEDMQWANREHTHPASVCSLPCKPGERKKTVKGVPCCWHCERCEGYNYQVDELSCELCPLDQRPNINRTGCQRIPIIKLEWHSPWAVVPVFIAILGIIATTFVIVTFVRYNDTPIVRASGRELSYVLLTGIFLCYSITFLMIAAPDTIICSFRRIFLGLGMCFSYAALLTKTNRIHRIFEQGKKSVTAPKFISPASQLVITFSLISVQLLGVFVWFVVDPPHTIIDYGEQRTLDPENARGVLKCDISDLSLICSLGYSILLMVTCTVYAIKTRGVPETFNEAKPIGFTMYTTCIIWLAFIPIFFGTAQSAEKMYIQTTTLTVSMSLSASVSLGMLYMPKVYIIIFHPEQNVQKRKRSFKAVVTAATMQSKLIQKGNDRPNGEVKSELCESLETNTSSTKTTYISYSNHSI
row,SMILES,z-score
1,CCn1c(SCCC(C)C)nnc1-c1c[nH]c2ccccc12,-0.118
2,Cc1cc(Br)ccc1SCC(=O)OCC(=O)NCc1ccc2c(c1)OCO2,-0.532
3,CCCCOC(=O)Cn1c(=N)n(CCN(CC)CC)c2ccccc21,-0.322
4,CCNC(=S)N/N=C/c1cccc(C)c1,0.00977
5,Cc1cccc(Nc2nc(N)c([N+](=O)[O-])c(N3CCCC(C)C3)n2)c1 (configuration not stated),-0.0648
6,COc1ccc(NC(=S)Nc2cc(C)cc(C)n2)cc1OC,-0.482
7,COc1cccc(C2C(C(=O)c3cc4cccc(OC)c4o3)=C(O)C(=O)N2c2cc(C)on2)c1OC (configuration not stated),-0.133
8,COc1ccc(-c2nc(C#N)c(NCc3cccnc3)o2)cc1OC,-0.191
9,O=C(Nc1ccc(OC(F)(F)F)cc1)Nc1cccc([N+](=O)[O-])c1,-0.447
10,Cc1nn(Cc2ccc(Cl)cc2)c(Cl)c1/C=N/NC(=O)CNc1ccccc1F,-0.0516
11,CCCCNC(=O)COC(=O)c1cc(C)nc2ccccc12,-0.0508
12,CC(C)CC(=O)NC1(C(F)(F)F)C(=O)N(Cc2ccccc2)C2=C1C(=O)CC(C)(C)C2 (configuration not stated),-0.0536
13,COc1ccc2c(C)cc(SCC(=O)Nc3ccc(Cl)cn3)nc2c1,-0.00668
14,Cc1cn(S(=O)(=O)c2ccc(Br)c3ccccc23)cn1,0.109
15,CCCc1nc(NC2CCCCC2)c(C#N)c2c1COC(C)(C)C2,-1.49
16,O=C1CSC(c2ccccc2)N1CC12CC3CC(CC(O)(C3)C1)C2 (configuration not stated),-0.241
17,CCc1nc2ccc(C(=O)O)cc2nc1CC,0.51
18,CCN(CC)c1cc(C)c2cc(NC(=O)CNC(C)=O)ccc2n1,1.43
19,COc1ccc(C)cc1NC(=O)CCCN1C(=O)CCC1=O,-0.23
20,N#C/C(=C\Nc1ccccc1SC(F)(F)F)c1nc(-c2ccc(Cl)cc2)cs1,-0.248
21,COC(=O)CSc1nc2ncccc2[nH]1,2.69
22,CCOC(=O)C1=C(C)N(C2CCCCC2)C(=O)C1,-0.101
23,CCOc1cc(C)nc(Oc2ccc(=O)[nH]n2)n1,0.324

row,SMILES,z-score
1,CCc1ccc(/C=C/C(=O)c2c(C)cc(C)[nH]c2=O)cc1,-0.106
2,COc1ccc(NC(=O)C(NC(C)=O)C(=O)NCc2ccc(F)cc2)cc1 (configuration not stated),-0.0758
3,CCCCN(CCCC)C(=O)c1ccccc1NC(=O)CN1C(=O)c2ccccc2C1=O,-0.366
4,CC(=O)Nc1nc(-c2ccc(Cl)cc2)nc(C)c1C(C)=O,-0.063
5,CCOC(=O)c1cnc2c(ccc3ccccc32)c1NCCO,-1.92
6,COc1cccc(Nc2nc3ccccc3nc2-n2nc(C)cc2C)c1,-0.0398
7,CC(=O)Nc1ccc(S(=O)(=O)NCCc2ccc(S(N)(=O)=O)cc2)cc1,0.0666
8,Cc1cc(C=C(C#N)C#N)c(C)n1-c1ccccc1,-0.0466
9,CCOC(=O)c1nnn(-c2nonc2-n2cccc2)c1CN1CCC(C(=O)OCC)CC1,-0.278
10,CCc1ccc(C2CC(c3ccc(Cl)cc3)=NNC2=O)cc1 (configuration not stated),-0.459
11,COc1cc(C)c(S(=O)(=O)n2nnc3ccccc32)cc1C,-0.262
12,CCCC1COC(Cn2cncn2)(c2ccc(C)cc2)O1 (configuration not stated),active: 10.6
13,Cn1ncc2c(Nc3cccc(C(=O)O)c3)ncnc21,-0.385
14,COC(=O)c1cc(COc2ccc3c4c(c(=O)oc3c2)CCC4)c(C)o1,-0.288
15,Cc1ccc(S(=O)(=O)NCc2nc3ccccc3c(=O)n2N)cc1,0.355
16,Cc1ccc(N(CN2CCCC2=O)C(=O)c2ccc(OC(C)C)cc2)cc1,-0.471
17,CC(C)N1C(=O)S/C(=C/c2cccnc2)C1=O,-0.0572
18,C=CCSc1n[nH]c(-c2ccc(OCCCC)cc2)n1,-0.185
19,O=c1cc(NCCCO)c2ccccc2o1,0.133
20,COc1ccc(Br)cc1CNc1ccc(S(N)(=O)=O)cc1,-0.284
21,Cc1c(NC(=O)C(C)OC(=O)CNC(=O)c2ccccc2)c(=O)n(-c2ccccc2)n1C (configuration not stated),0.115
22,CCCOc1ncnc2c1[nH]c1ccccc12,-0.297
23,CCN(CC)S(=O)(=O)c1ccc(C(=O)NCCCN=C2NS(=O)(=O)c3ccccc32)cc1,-0.048

row,SMILES,z-score
1,CSc1nc(-c2ccc(C)cc2)[nH]c1S(=O)(=O)c1ccccc1,0.126
2,COc1ccc2cc3cc(C(=O)NCC4CCCO4)oc3nc2c1 (configuration not stated),0.71
3,COc1cc(NC(=O)Cc2nn(C)c(=O)c3ccccc23)cc(OC)c1,-0.162
4,N=C1C(c2ccccc2)=C(O)CN1c1cccc(S(N)(=O)=O)c1,-0.167
5,CC(O)Cc1nsc(NC(=O)c2cccs2)n1 (configuration not stated),-0.153
6,CCOc1ccc2nc(NC(=O)C(NS(=O)(=O)c3cccc4nsnc34)C(C)C)sc2c1 (configuration not stated),0.208
7,Cc1cc(C)nc(NC2=NCC(=O)N2c2ccc(F)c(Cl)c2)n1,-0.151
8,O=C(O)c1ccc(N/N=C/c2cccc(F)c2)cc1,0.873
9,CCC(C)n1c(SCc2ccccc2)nc2ccsc2c1=O (configuration not stated),-0.114
10,Cc1cc(NC(=O)c2cc(C(C)C)on2)nn1Cc1ccc(Cl)cc1,0.132
11,CC1(C)CC(=O)C2=C(C1)N(c1ccccc1)C(N)=C(C#N)C2c1ccccc1 (configuration not stated),-0.49
12,CCOc1ccc(C(=O)/C=C/c2cn(CN3CCN(C)CC3)c3ccccc23)cc1,-0.0815
13,CC(C)c1ccc(C(=O)NNC(=O)C2CC=CCC2C(=O)O)cc1 (configuration not stated),0.0591
14,O=C(NCCCc1ccccc1)c1ccccc1,-0.192
15,COCc1c(C(=O)OCc2nc(N)nc(Nc3ccccc3C)n2)oc2ccccc12,-0.996
16,Brc1cc2c(cc1Cn1c(-c3cncs3)nc3ccccc31)OCO2,0.1
17,COC(=O)c1sc(NC(=O)CSc2nncs2)c(C(=O)OC)c1C,0.489
18,COc1ccc2c(C)cc(Sc3nnnn3-c3ccccc3)nc2c1,-0.336
19,O=C(CSc1nnc(SCc2ccccc2)s1)N/N=C/c1ccc(Cl)cc1Cl,-0.247
20,Cc1ccc(C2N(c3ccc(F)cc3)C(=O)C3CCCN32)cc1 (configuration not stated),0.214
21,O=C(c1cccnc1)N1CCN(C(=O)c2ccccc2F)CC1,0.923
22,COc1cccc(NC(=O)N2CCC(N3CCCCC3)CC2)c1,-0.892
23,COc1ccc(N2CCN(C(=O)C3CCCN(S(=O)(=O)c4cccc5cccnc45)C3)CC2)cc1 (configuration not stated),0.828

row,SMILES,z-score
1,CN(NC1CC(=O)N(c2ccccc2)C1=O)c1ccccc1 (configuration not stated),-0.00236
2,Cc1ccc(-n2nc(C(=O)c3ccccc3)n3c(=O)c(Cc4ccccc4)nnc23)cc1,0.105
3,O=C(NCc1ccco1)c1ccc(N2CCCCC2)c([N+](=O)[O-])c1,-0.238
4,Cc1c(NC(=O)CN2C(=O)C3C4C=CC(C4)C3C2=O)c(=O)n(-c2ccccc2)n1C (configuration not stated),-0.00489
5,O=C(CC1OC(=O)c2ccccc21)c1ccco1 (configuration not stated),-0.219
6,O=C(O)CCc1ccc(-c2ccccc2)n1Cc1ccco1,-0.67
7,COc1ccc(Nc2oc(COc3ccccc3F)nc2C#N)cc1,-0.507
8,CCOC(=O)CSc1nc(C2CC2)cc(-c2ccc(Cl)cc2)c1C#N,0.684
9,O=C(Nc1cccc(C(F)(F)F)c1)c1cccnc1N1CCN(c2ccccc2)CC1,-0.134
10,CCOc1cc(C2NC(=O)NC(O)(C(F)(F)F)C2C(=O)c2ccccc2)ccc1OC (configuration not stated),0.243
11,Cc1sc2nc(SCC(N)=O)n(C)c(=O)c2c1C,-0.177
12,Cc1cccc(OCc2nnc(SCC(=O)Nc3ccc(C)c(C)c3)o2)c1,0.728
13,CC(C)c1ccccc1NC(=O)c1cccc(NC(=O)c2ccccc2)c1,-0.797
14,CS/C(=C\[N+](=O)[O-])Nc1ccc(F)cc1,0.177
15,CCCCOc1ccc(-c2nc(/C=N/c3nccs3)c(O)o2)cc1,2.84
16,Cc1cccc(N(CC(O)CON=C2c3ccccc3-c3ccccc32)S(C)(=O)=O)c1 (configuration not stated),0.773
17,CCOc1ccccc1NC(=O)CC1Nc2cc(C)c(C)cc2NC1=O (configuration not stated),-0.142
18,Cc1ccc(OCC(=O)n2nc(C)cc2C)c(Br)c1,-0.701
19,O=C(NC1(C(F)(F)F)NC(=O)N(Cc2ccco2)C1=O)c1cccnc1 (configuration not stated),-0.0725
20,O=C(C1CCCO1)N1CCN(C(c2ccccc2)c2ccccc2)CC1 (configuration not stated),0.482
21,CC(=O)c1cccc(N(CC(=O)Nc2ccc(F)cc2F)S(C)(=O)=O)c1,0.487
22,CCc1ccc(N2CC(C(=O)Nc3nnc(CC)s3)CC2=O)cc1 (configuration not stated),0.169
23,CC(C)NC(NC(=O)Cc1ccccc1)C(Cl)(Cl)Cl (configuration not stated),-0.12

row,SMILES,z-score
1,CCOC(=O)N1CCC(NC(=O)c2cnn3cccnc23)CC1,-0.469
2,CCn1c(CC(=O)Nc2ccc(C)cc2)nnc1SCC(=O)Nc1nc(C)cs1,-0.514
3,Cc1cccc(OCc2nnc(SCc3cc(=O)[nH]c4ccccc34)n2-c2ccccc2)c1,-0.403
4,CC(C)(C)NC(=O)NC(=O)COC(=O)CNC(=O)c1cccc(F)c1,-1.54
5,CC(=O)c1cc(-c2ccccc2)n(CC(=O)Nc2ccc(C)c(C)c2)c1C,0.091
6,CCOC(=O)N1CCN(C(=O)CSc2nnc(COc3ccccc3)o2)CC1,-0.239
7,CCOc1c2ccc(C(=O)NCc3ccco3)cc2nn1CC,-0.189
8,O=C(C(=O)N1CC=C(c2ccccc2)CC1)c1c[nH]c2ccccc12,-0.198
9,CN(C)CCOc1ccccc1C(C)(C)C,0.0255
10,Cc1nn(-c2ccccc2)c(Cl)c1/C=N/Nc1ccc(Cl)c(C(=O)O)c1,-0.82
11,Cc1ccc(Oc2cc(N3CCOCC3)nc(-c3ccccc3)n2)cc1,-0.00509
12,CCOC(=O)C1=C(C)NC(=O)NC1c1ccc(OCC(N)=O)cc1 (configuration not stated),-0.412
13,C/C=C/C=N/NC(=O)CN(c1ccc(Br)cc1)S(=O)(=O)c1ccccc1,-0.24
14,N=C1C(c2nc3ccccc3c(=O)[nH]2)=C(O)CN1c1ccccc1,0.297
15,COc1cc(C2Nc3cc(Cl)c(S(N)(=O)=O)cc3S(=O)(=O)N2)cc(OC)c1OC (configuration not stated),-0.0667
16,COC(=O)c1ccc(NC(=O)C23CC4CC(C2)CC(n2cnc(Cl)n2)(C4)C3)cc1,-0.385
17,CSc1cc(-c2ccc(Cl)cc2)c(C(=O)NC(C)C)s1,0.153
18,CN(C)S(=O)(=O)n1ccnc1,-0.165
19,Cc1ccc(OCC(=O)N/N=C/c2cn(Cc3ccccc3)c3ccccc23)cc1,-0.188
20,O=C1c2ccccc2C(=O)C12OC(c1ccccc1)C1(C(=O)c3ccccc3C1=O)C2c1ccc([N+](=O)[O-])cc1 (configuration not stated),-0.669
